Experimental data from EP0255485A2, “Transdermal compositions” (priority 1986, dated 1988).

Parameters: key to flux: **: lower than HPLC sensitivity
Protocol: The amount of narcotic agent(s) in the skin diffusion samples studied was quantified using the following high pressure liquid chromatography (HPLC) assay. An HPLC method, which employed an isocratic mobile phase, a CN column and a UV detector, was used for the quantitation of all three narcotic compounds present in the skin diffusion samples. Over a concentration range of 3 to 50 ug/ml, the system is reproducible and linear. The retention times for morphine, oxymorphone, and hydromorphone are 8.3, 8.7 and 9.7 minutes, respectively, with this system.
A 2:8 mixture of acetonitrile and a solution of 0.05 M ammonium phosphate adjusted to pH 3 with phosphoric acid and diluted 1 to 16 with water.
Dupont Zorbax CN 4.6 mm (internal diameter) × 25 cm (length) column.
Spectra Physics SP4270 Computing Integrator
Isotonic Citrate/Phosphate Buffer PH 4.5
Male hairless mice, approximately 6-8 weeks old, were sacrificed by cervical dislocation. Square sections of skin (about 3-5 cm²) were excised from the animals with surgical scissors. The skin was mounted on Franz® diffusion cells with the dermal side facing the receiver compartment, and leached with saline for 2 hours before use. Temperature was maintained at 37°C during the experiment.

CC1CC(=O)NN=C1c1ccc(-n2ccnc2)cc1 (stereo not drawn) [Compound I Base]
flux: 114.3 ug/cm²/h | lag time: about 3.5 hours

CCC(NC(C)C)C(O)c1ccc(O)c2[nH]c(=O)ccc12 (stereo not drawn) [Procaterol Hydrochloride]
flux (Solvent System PG, approximate concentration 5 mg/ml): **

Where a name gives a salt, the structure may show the parent alone. Read-outs that look alike come from different tables or passages of the source.
